# The list shows a part of the results.
# Tests used:
# Assay in all cases: glycan array binding signal (z-score within array); higher = stronger binding
# Settings in all cases: glycan notation: IUPAC condensed, linker removed
# [1] = target: Fuc(a1-2)Gal
# Outline: (§1)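 Negative Z-scores can be read as non-binding. The Z-score is calculated within each array and then averaged across arrays of one protein sequence at different concentrations or buffers and across linkers. Arrays, 3228 in all, were curated from the Consortium for Functional Glycomics database and kept only where the protein sequence was available.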
# [2] = target: Fuc(a1-2)Gal(b1-3)GalNAc
# Outline: as §1
# [3] = target: Fuc(a1-2)Gal(b1-3)GalNAc(a1-3)[Fuc(a1-2)]Gal(b1-4)Glc
# Outline: as §1
# [4] = target: Fuc(a1-2)Gal(b1-3)GalNAc(a1-3)[Fuc(a1-2)]Gal(b1-4)GlcNAc
# Outline: as §1
# [5] = target: Fuc(a1-2)Gal(b1-3)GalNAc(b1-3)Gal
# Outline: as §1
# [6] = target: Fuc(a1-2)Gal(b1-3)GalNAc(b1-3)Gal(a1-4)Gal(b1-4)Glc
# Outline: as §1
# [7] = target: Fuc(a1-2)Gal(b1-3)GalNAc(b1-4)[Neu5Ac(a2-3)]Gal(b1-4)Glc
# Outline: as §1
# [8] = target: Fuc(a1-2)Gal(b1-3)GlcNAc
# Outline: as §1
# [9] = target: Fuc(a1-2)Gal(b1-3)GlcNAc(b1-2)Man(a1-3)[Fuc(a1-2)Gal(b1-3)GlcNAc(b1-2)Man(a1-6)]Man(b1-4)GlcNAc(b1-4)GlcNAc
# Outline: as §1
# [10] = target: Fuc(a1-2)Gal(b1-3)GlcNAc(b1-2)Man(a1-3)[Fuc(a1-2)Gal(b1-3)GlcNAc(b1-2)Man(a1-6)]Man(b1-4)GlcNAc(b1-4)[Fuc(a1-6)]GlcNAc
# Outline: as §1
# [11] = target: Fuc(a1-2)Gal(b1-3)GlcNAc(b1-3)Gal(b1-4)Glc
# Outline: as §1
# [12] = target: Fuc(a1-2)Gal(b1-3)GlcNAc(b1-3)GalNAc
# Outline: as §1
# [13] = target: Fuc(a1-2)Gal(b1-3)GlcNAc(b1-3)[Fuc(a1-2)Gal(b1-3)GlcNAc(b1-6)]GalNAc
# Outline: as §1
# [14] = target: Fuc(a1-2)Gal(b1-3)GlcNAc(b1-3)[Fuc(a1-3)[Gal(b1-4)]GlcNAc(b1-6)]Gal(b1-4)Glc
# Outline: as §1
# [15] = target: Fuc(a1-2)Gal(b1-3)GlcNAc(b1-3)[Gal(b1-4)GlcNAc(b1-6)]Gal(b1-4)Glc
# Outline: as §1
# [16] = target: Fuc(a1-2)Gal(b1-3)GlcNAc(b1-3)[Neu5Ac(a2-6)Gal(b1-4)GlcNAc(b1-6)]Gal(b1-4)Glc
# Outline: as §1
# [17] = target: Fuc(a1-2)Gal(b1-3)GlcNAc6S
# Outline: as §1
# [18] = target: Fuc(a1-2)Gal(b1-3)[Fuc(a1-4)]GlcNAc
# Outline: as §1
# [19] = target: Fuc(a1-2)Gal(b1-3)[Fuc(a1-4)]GlcNAc(b1-2)Man(a1-3)[Fuc(a1-2)Gal(b1-3)[Fuc(a1-4)]GlcNAc(b1-2)Man(a1-3)]Man(b1-4)GlcNAc(b1-4)GlcNAc
# Outline: as §1
# [20] = target: Fuc(a1-2)Gal(b1-3)[Fuc(a1-4)]GlcNAc(b1-2)Man(a1-3)[Fuc(a1-2)Gal(b1-3)[Fuc(a1-4)]GlcNAc(b1-2)Man(a1-6)]Man(b1-4)GlcNAc(b1-4)GlcNAc
# Outline: as §1
# [21] = target: Fuc(a1-2)Gal(b1-3)[Fuc(a1-4)]GlcNAc(b1-2)Man(a1-3)[Fuc(a1-2)Gal(b1-3)[Fuc(a1-4)]GlcNAc(b1-2)Man(a1-6)]Man(b1-4)GlcNAc(b1-4)[Fuc(a1-6)]GlcNAc(b1-4)[Fuc(a1-6)]GlcNAc
# Outline: as §1
# [22] = target: Fuc(a1-2)Gal(b1-3)[Fuc(a1-4)]GlcNAc(b1-3)[Fuc(a1-3)[Gal(b1-4)]GlcNAc(b1-6)]Gal(b1-4)Glc
# Outline: as §1
# [23] = target: Fuc(a1-2)Gal(b1-3)[Fuc(a1-4)]GlcNAc(b1-3)[Gal(b1-4)GlcNAc(b1-6)]Gal(b1-4)Glc
# Outline: as §1
# [24] = target: Fuc(a1-2)Gal(b1-4)Fuc(a1-3)]GlcNAc(b1-2)Man(a1-3)[Fuc(a1-2)Gal(b1-4)[Fuc(a1-3)]GlcNAc(b1-2)Man(a1-6)]Man(b1-4)GlcNAc(b1-4)GlcNAc
# Outline: as §1
# [25] = target: Fuc(a1-2)Gal(b1-4)Glc
# Outline: as §1
# [26] = target: Fuc(a1-2)Gal(b1-4)Glc6S
# Outline: as §1
# [27] = target: Fuc(a1-2)Gal(b1-4)GlcNAc
# Outline: as §1
# [28] = target: Fuc(a1-2)Gal(b1-4)GlcNAc(b1-2)Man
# Outline: as §1
# [29] = target: Fuc(a1-2)Gal(b1-4)GlcNAc(b1-2)Man(a1-3)[Fuc(a1-2)Gal(b1-4)GlcNAc(b1-2)Man(a1-6)]Man(b1-4)GlcNAc(b1-4)GlcNAc
# Outline: as §1
# [30] = target: Fuc(a1-2)Gal(b1-4)GlcNAc(b1-2)Man(a1-3)[Fuc(a1-2)Gal(b1-4)GlcNAc(b1-2)Man(a1-6)]Man(b1-4)GlcNAc(b1-4)[Fuc(a1-6)]GlcNAc
# Outline: as §1
binder,measurement,setting,value
rAAL-2 (Agrocybe aegerita) (protein) MTSNVITQDLPIPVASRGFADIVGFGLDGVVIGRNAVNLQPFLAVKNFAQNAGGWLTTKHVRLIADTTGTGKGDIVGFGNAGVYVSVNNGKNTFADPPKMVIANFGYDAGGWRVEKHLRYLADIRKIGRADIIGFGEKGVLVSRNNGGLNFGPATLVLKDFGYDAGGWRLDRHLRFLADVTGNGHLDIVGFGDKHVFISRNNGDGTFAPAKSVIDNFCIDAGGWKIGDHPRFVADLTGDGTADIIGCGKAGCWVALNNGGGVFGQVKLVINDFGTDKGWQAAKHPRFIADLTGNGRGDVVGFGNAGVYVALNNGDGTFQSAKLVLKDFGVQQGWTVSKHRRFVVDLTGDGCADIIGFGEKETLVSYNDGKGNFGPVKALTNDFSFSGGKWAPETTVCWMANLDSSRH,glycan array binding signal (z-score),[1],-0.336
same,glycan array binding signal (z-score),[2],-0.253
same,glycan array binding signal (z-score),[3],-0.341
same,glycan array binding signal (z-score),[4],-0.201
same,glycan array binding signal (z-score),[5],-0.208
same,glycan array binding signal (z-score),[6],-0.123
same,glycan array binding signal (z-score),[7],-0.336
same,glycan array binding signal (z-score),[8],-0.264
same,glycan array binding signal (z-score),[9],-0.092
same,glycan array binding signal (z-score),[10],-0.075
same,glycan array binding signal (z-score),[11],-0.219
same,glycan array binding signal (z-score),[12],-0.137
same,glycan array binding signal (z-score),[13],-0.087
same,glycan array binding signal (z-score),[14],-0.23
same,glycan array binding signal (z-score),[15],-0.312
same,glycan array binding signal (z-score),[16],-0.228
same,glycan array binding signal (z-score),[17],-0.444
same,glycan array binding signal (z-score),[18],-0.348
same,glycan array binding signal (z-score),[19],0.08
same,glycan array binding signal (z-score),[20],-0.176
same,glycan array binding signal (z-score),[21],0.099
same,glycan array binding signal (z-score),[22],-0.358
same,glycan array binding signal (z-score),[23],-0.046
same,glycan array binding signal (z-score),[24],0.288
same,glycan array binding signal (z-score),[25],-0.334
same,glycan array binding signal (z-score),[26],-0.173
same,glycan array binding signal (z-score),[27],-0.344
same,glycan array binding signal (z-score),[28],-0.247
same,glycan array binding signal (z-score),[29],-0.013
same,glycan array binding signal (z-score),[30],-0.215
